The results in this text go back to the RNAGym collection of RNA variant scans (doi:10.1093/nar/gkz1192).

First the molecules themselves.
B1: CPEB3 Ribozyme (parent)
chain: UAACAGGGGGCCACAGCAGAAGCGUUCACGUCGCAGCCCCUGUCAGAUUCUGGUGAAUCUGCGAAUUCUGCUGUAUAUCUC

The source gives no read counts; variants with many changes may rest on few reads.

In the data set the parent is B1. Briefly: self-cleavage, relative activity (ratio to wild type); higher = more cleavage; in vitro, sequencing. The procedure, abridged:
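Relative activity was defined as the cleaved/total read fraction for a variant divided by the same fraction for the unmutated ribozyme. CPEB3 self-cleaving ribozyme libraries were made by rounds of error-prone PCR, barcoded, and transcribed in vitro with T7 RNA polymerase for 5 hours at 37°C, and cleavage ran through transcription plus a 15 min DNase I step before EDTA. Illumina sequencing of template-switched reverse transcripts gave the reads, and DNA sequencing mapped the barcodes. Averages come from three batches, using variants with at least 5 reads.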
On to A18G A21G U26C U31A A64G, for which the self-cleavage amounted to 0.05.

Consider A18C U31C G36A U54C C59A, for which the self-cleavage was determined as 0.16.

In the case of A18C A35C A77G, the self-cleavage amounted to 0.11.

Regarding A18C U43C G52U U69C, the self-cleavage worked out at 0.14.

For A18G A21G U26C U67A, the self-cleavage was determined as 0.32.

In the case of A18G A21G A56G U80C, the self-cleavage was 0.45.

Turning to A18G A21G U31A U41C A56U A57G, the self-cleavage was 0.21.

With A18C U31C U69C U80A, the self-cleavage turned out to be 0.16.

For the variant A18G A28U A47G U54C, the self-cleavage was determined as 0.25.

Turning to A18G A21G C27A U43A U69A, the self-cleavage worked out at 0.05.

As to A18G A28G U41A A45G, the self-cleavage came out at 0.29.

With A18G A20U U72A U78C, the self-cleavage was determined as 0.14.

On to A18C A35G U67C U72C U74A, for which the self-cleavage came out at 0.31.

Take A18C G30A U48C U54A U67C: the self-cleavage was 0.12.

A18C C23U A45G U51A U69A U78A: the self-cleavage came to 0.06.

Consider A18G A21G U26A U43A A45U A56G U60C, for which the self-cleavage is 0.03.

With A18C U49C G53A, the self-cleavage came to 0.21.

As to A18G A35G C44U, the self-cleavage came out at 0.24.

For the variant A18C A45G A57C A77G, the self-cleavage came to 0.08.

In the case of A18G A28C C44G A57G, the self-cleavage came to 0.19.

On to A18G A21U G63A, for which the self-cleavage was 0.33.

Regarding A18C C23U U41C, the self-cleavage worked out at 0.2.

Consider A18G A21C U58C U80C, for which the self-cleavage amounted to 0.28.

For A18C A21U C44A A56U U58C A64U, the self-cleavage came out at 0.03.

As to A18C U51C G52U A56G A64G U72C U80C, the self-cleavage stood at 0.09.

On to A18G A28C U31G U48A U67C, for which the self-cleavage is 0.17.

A18G A20U U41A A45U A75U U78A: the self-cleavage worked out at 0.05.

Regarding A18G A20C U25C U67C, the self-cleavage came out at 0.07.

Regarding A18G A20U U51C A56U U74A, the self-cleavage was 0.09.

For the variant A18C A57G G63A C81A, the self-cleavage came to 0.57.

Turning to A18G A20C A45G A57G U74C, the self-cleavage was 0.17.

Consider A18G A20U A45G U60A, for which the self-cleavage was determined as 0.16.

As for A18C U51C G73A, the self-cleavage was 0.63.

Take A18G A28C U48A C68A: the self-cleavage was found to be 0.13.

Consider A18G A21U C40U U48A U69C U78C, for which the self-cleavage is 0.07.

A18G A35G A47G: the self-cleavage worked out at 0.77.

In the case of A18C A45G U49C U51A A64G, the self-cleavage came out at 0.11.

Take A18G A35G A45U C68U U78C C81U: the self-cleavage came out at 0.3.

As to A18C A35G U43C A45G, the self-cleavage came to 0.09.

Consider A18G A20U U41C, for which the self-cleavage is 0.23.

Consider A18C U72C U80A, for which the self-cleavage turned out to be 0.53.

Take A18C A45C C62A A64G A75G: the self-cleavage amounted to 0.08.

For the variant A18G A21U C34U A35G U49C U51A U67G, the self-cleavage came out at 0.05.

For the variant A18G A35G U41C, the self-cleavage is 0.48.

For the variant A18G A21G U43C U49A, the self-cleavage is 0.06.

Take A18G A21G C44U A45G G52A: the self-cleavage amounted to 0.12.

On to A18G A28G U49A U69C, for which the self-cleavage was 0.54.

Turning to A18G A21G G30A A45G U58C, the self-cleavage was determined as 0.08.

As to A18G A20U A35G U54C U78C, the self-cleavage was determined as 0.36.

Take A18G A28U C62U: the self-cleavage worked out at 0.12.

For A18G A28U C62A, the self-cleavage is 0.19.

For the variant A18G A28G A45U U72C, the self-cleavage was found to be 0.16.

With A18G A28G A45G U80G, the self-cleavage amounted to 0.37.

On to A18C U25C C40U U51C U74A A75G, for which the self-cleavage was found to be 0.11.

For A18C U41A A77G, the self-cleavage came to 0.

Turning to A18G A28G U41C U66C U67C, the self-cleavage amounted to 0.2.

With A18G A28U U72C, the self-cleavage stood at 0.55.

Regarding A18C U51A U80C, the self-cleavage is 0.31.

For A18G A28C U49C, the self-cleavage was determined as 0.14.

For the variant A18G A21G C37A U69A, the self-cleavage is 0.26.

Take A18C U31C U54C C59A U78G: the self-cleavage worked out at 0.02.

Regarding A18G A28G U49C C50A, the self-cleavage amounted to 0.32.

Turning to A18C U25C A35G C62A U67C U72C U74A, the self-cleavage came out at 0.09.

A18G A21G U31G A47G U48A: the self-cleavage came out at 0.09.

As for A18C U43C U72C U76C, the self-cleavage is 0.24.

With A18G A21U C29U C50U, the self-cleavage was determined as 0.04.

As to A18G A35G A56U U60C, the self-cleavage came out at 0.39.

As to A18G A28G U49C U80C, the self-cleavage is 0.1.

A18C U31A U41C: the self-cleavage stood at 0.8.

Consider A18C G33U G46A U67C U80A, for which the self-cleavage was 0.05.

Turning to A18G A28G U41C U43C U66C, the self-cleavage worked out at 0.17.

A18G A20U U60C: the self-cleavage is 0.1.

For the variant A18G A21U U26A U41C U69C, the self-cleavage amounted to 0.13.

A18G A28G A35G C40A: the self-cleavage stood at 0.07.

On to A18C U58C A75U A77G, for which the self-cleavage came to 0.17.

Take A18C U25C A56G: the self-cleavage was determined as 0.43.

Take A18C U41C A57G: the self-cleavage was determined as 0.16.

With A18G A21G U26C, the self-cleavage turned out to be 0.11.

With A18G A28U A35G U74A, the self-cleavage amounted to 1.1.

As for A18G A20G A64U, the self-cleavage was 0.35.

Take A18G A35G C68U: the self-cleavage was 0.23.

For the variant A18C U25C A35G U48C U60C, the self-cleavage was found to be 0.

With A18G A28G U80C C81U, the self-cleavage came out at 0.42.

Take A18G A20G U51A U54A U60A U67C: the self-cleavage was 0.29.
